Test results taken from the supplement of paper PMC12217912.
The list shows a part of the results. Sequences were assembled here from the parent chain. Values near 0.05 are background.

B1: TEV protease; numbered along this chain (parent)
chain: MGESLFKGPRDYNPISSSICHLTNESDGHTTSLYGIGFGPFIITNKHLFRRNNGTLVVQSLHGVFKVKDTTTLQQHLVDGRDMIIIRMPKDFPPFPQKLKFREPQREERICLVTTNFQTKSMSSMVSDTSCTFPSGDGIFWKHWIQTKDGQCGSPLVSTRDGFIVGIHSASNFTNTNNYFTSVPKNFMELLTNQEAQQWVSGWRLNADSVLWGGHKVFMVKPEEPFQPVKEATQL

Variants of: B1
Assay: raw area under fraction-flipped curve 0-4 h after induction (AUC4h, not background-subtracted), DNA-recorder readout of cleavage of the substrate (dimensionless); higher = more cleavage of the substrate by the protease variant
Conditions: temperature: 34 °C; time window: 0-4 h after rhamnose induction
Description: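 In vivo DNA recorder in E. coli TOP10(DE3) ΔrhaA at 34 °C. Each TEVp single-site mutant (parent TEVp 0) is paired with a single-site variant of the 7-mer TEVs (canonical ENLYFQ|S). The substrate sits between flexible linkers in a Bxb1-sfGFP-TEVs-SsrA fusion, so cleavage stabilises Bxb1 and speeds flipping of a recombination array, read by NGS. The value is the raw area under the fraction-flipped curve over 0-4 h after rhamnose induction (AUC4h), with ≥20 reads per time point. It is not background-subtracted; inactive controls average about 0.047.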
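Also: Bxb1 expression induced with 0.2% (w/v) L-rhamnose at OD600 near 0.5, cultures sampled hourly, flipped fraction per protease–substrate barcode pair counted by paired-end Illumina sequencing.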

Variant	area with substrate ECLYFQS	area with substrate EELYFQS	area with substrate EFLYFQS	area with substrate EHLYFQS	area with substrate EILYFQS	area with substrate EKLYFQS	area with substrate ELLYFQS	area with substrate EMLYFQS	area with substrate ESLYFQS	area with substrate EVLYFQS	area with substrate EYLYFQS	area with substrate EGLYFQS	area with substrate EPLYFQS	area with substrate ERLYFQS	area with substrate EWLYFQS	area with substrate EALYFQS	area with substrate EQLYFQS	area with substrate EDLYFQS	area with substrate ETLYFQS
S130P	0.0536	0.0714	0.0811	0.0792	0.0328	0.0504	0.0519	0.0568	0.0607	0.0659	0.0368	–	–	–	–	–	–	–	–
I36F	0.09	0.0919	–	–	0.079	0.0987	0.0923	0.0974	0.0861	–	–	0.0769	0.0684	0.0809	0.0734	–	–	–	–
F41T	–	–	–	–	–	–	0.077	0.116	0.0955	0.0853	0.0916	–	0.0957	0.0847	–	0.0936	–	–	–
F180G	0.0903	0.0953	–	0.0713	0.0602	0.0472	0.0579	0.0717	0.0658	0.0702	–	–	0.0816	0.0617	0.0823	–	0.0585	–	–
R10E	0.0887	–	0.0909	–	0.06	0.101	0.085	0.154	0.0902	0.0898	–	–	–	0.0798	0.0718	–	–	0.115	0.0977
R10Q	0.111	0.0914	0.0833	0.111	0.0967	–	0.0997	0.131	0.124	0.11	0.103	0.0631	–	0.109	0.103	–	–	0.124	0.137
L77G	0.0682	0.0814	–	–	–	0.0771	0.0768	–	0.0832	–	–	–	0.0871	0.064	–	–	0.0761	–	–
H62S	0.117	–	–	–	0.0913	–	0.106	–	0.108	0.105	0.116	0.108	0.123	0.0933	0.0972	–	0.11	–	0.0827
T30N	0.0911	0.101	–	–	0.0827	–	0.0861	0.0923	0.0986	0.0892	0.056	0.0549	0.131	0.0796	0.0885	–	0.107	0.107	0.0749
A196K	0.104	0.151	–	–	0.0943	0.11	0.103	0.117	0.11	0.103	–	0.0938	0.108	0.0452	0.0916	–	–	0.137	–
P228Q	0.0892	0.136	0.117	0.102	0.0804	–	0.104	0.14	0.119	0.105	–	0.093	0.085	0.117	0.0786	–	–	–	–
E108D	0.133	–	–	0.105	0.0868	–	0.0804	–	0.109	–	0.108	–	–	0.121	–	–	0.111	–	–
T31D	0.114	–	–	0.122	0.11	0.109	0.096	0.131	0.118	0.0952	–	–	0.113	0.188	0.0837	–	0.113	0.132	0.144
V183N	0.07	0.116	–	0.0793	0.0811	–	–	–	0.0907	0.0973	–	–	0.104	0.106	0.0975	–	0.0818	–	0.134
V183R	0.0681	0.0921	–	–	–	0.0641	0.0336	0.0514	0.0606	0.046	–	–	–	0.0543	–	–	–	–	–
N193G	0.0935	–	–	0.0905	–	0.0722	–	–	–	–	0.114	–	–	0.0986	–	–	–	–	–
E25V	0.107	–	0.116	0.0719	0.0881	0.101	–	0.122	0.11	0.084	–	0.0744	–	0.104	0.105	–	0.0929	0.129	–
I139P	–	–	–	–	–	–	–	0.172	0.108	0.111	–	–	0.128	–	0.111	0.108	0.116	–	–
Q198C	0.104	0.104	–	0.127	0.0947	0.101	0.0947	0.118	0.111	0.0966	0.0992	0.0978	0.0975	0.0779	–	–	0.129	–	0.104
T70Q	0.0834	0.0904	–	0.0839	–	0.0642	–	0.093	0.0809	–	0.0864	–	0.0871	0.0792	–	–	0.104	–	–
I167S	0.0651	0.0672	0.0768	0.0672	0.0665	0.0511	–	0.0616	0.0739	0.0711	0.114	0.0735	0.0648	0.0728	0.0648	–	0.0741	–	0.0669
R81F	0.0989	0.0823	0.0835	0.102	0.105	0.086	0.0829	0.0734	0.0953	0.0701	–	0.077	0.0846	0.0954	0.0999	–	0.097	0.0935	0.1
I84F	0.0602	0.0629	–	–	0.0404	0.059	0.0524	0.0779	0.0658	–	0.0845	0.0545	0.0693	0.0596	0.0642	–	0.0589	–	–
G54S	0.0821	0.0804	–	0.103	0.0866	0.082	0.0609	0.0893	0.0709	0.0678	0.106	0.0904	–	0.0418	–	–	0.0733	–	–
S4W	0.0971	0.087	0.0834	–	0.073	0.107	0.106	0.0769	0.0781	–	–	0.0845	–	0.106	0.0665	–	0.15	0.092	0.113
N45M	0.0314	0.0721	0.0785	0.0945	0.0562	0.0701	0.0604	0.0536	0.0641	0.064	–	0.0543	0.0706	0.0489	0.0582	–	0.0621	0.0664	0.0616
M83C	0.072	–	0.0773	–	0.101	0.068	0.0747	–	0.0916	0.0957	0.0828	0.0842	–	0.0862	0.0869	–	0.0948	0.0801	0.103
G150P	0.0576	0.0567	0.0531	0.0606	0.0433	0.0562	0.0596	0.0557	0.059	0.0536	0.07	0.0606	0.0504	0.0693	0.0542	–	0.0661	–	0.0882
